In paper PMC9911399, “Two distinct binding modes provide the RNA-binding protein RbFox with extraordinary sequence specificity”:
Numbering of substitutions follows the chain as printed; changes in the protein carry UniProt numbers. The list shows a part of the results.

T1: RBFOX1 RRM RbFoxmut (Fox-RRM*) (Homo sapiens, UniProt Q9NWB1 109-208, R118D;E147R;N151S;E152T)
T1 sequence: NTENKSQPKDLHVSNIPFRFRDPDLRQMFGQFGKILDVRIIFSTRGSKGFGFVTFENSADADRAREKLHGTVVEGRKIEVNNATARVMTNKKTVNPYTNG

B1: AAAUUUG (DNA:RNA)
RNA: GGGAGACCGGAAUUCAGAUUGUCCAAAUUUGUUAAAUCCCGUCGUAGCCACCA
DNA 1: CAATCTGAATTCCGGTCTCCC
DNA 2: TGGTGGCTACGACGGGATT
B2: AAACCUC (DNA:RNA)
RNA: B1 RNA with U28C, U29C, G31C
DNA 1: CAATCTGAATTCCGGTCTCCC
DNA 2: TGGTGGCTACGACGGGATT
B3: CAGUCUU (DNA:RNA)
RNA: B1 RNA with A25C, A27G, U29C, G31U
DNA 1: CAATCTGAATTCCGGTCTCCC
DNA 2: TGGTGGCTACGACGGGATT
B4: GAGUGGG (DNA:RNA)
RNA: B1 RNA with A25G, A27G, U29G, U30G
DNA 1: CAATCTGAATTCCGGTCTCCC
DNA 2: TGGTGGCTACGACGGGATT
B5: UUCUCCG (DNA:RNA)
RNA: B1 RNA with A25U, A26U, A27C, U29C, U30C
DNA 1: CAATCTGAATTCCGGTCTCCC
DNA 2: TGGTGGCTACGACGGGATT
B6: ACAUAUG (DNA:RNA)
RNA: B1 RNA with A26C, U29A
DNA 1: CAATCTGAATTCCGGTCTCCC
DNA 2: TGGTGGCTACGACGGGATT
B7: AGAGCUG (DNA:RNA)
RNA: B1 RNA with A26G, U28G, U29C
DNA 1: CAATCTGAATTCCGGTCTCCC
DNA 2: TGGTGGCTACGACGGGATT
B8: CUCAGUA (DNA:RNA)
RNA: B1 RNA with A25C, A26U, A27C, U28A, U29G, G31A
DNA 1: CAATCTGAATTCCGGTCTCCC
DNA 2: TGGTGGCTACGACGGGATT
B9: UCUGAAC (DNA:RNA)
RNA: GGGAGACCGGAAUUCAGAUUGUCCUCUGAACUUAAAUCCCGUCGUAGCCACCA
DNA 1: CAATCTGAATTCCGGTCTCCC
DNA 2: TGGTGGCTACGACGGGATT
B10: CGAGUUC (DNA:RNA)
RNA: B1 RNA with A25C, A26G, U28G, G31C
DNA 1: CAATCTGAATTCCGGTCTCCC
DNA 2: TGGTGGCTACGACGGGATT
B11: GUGGCUC (DNA:RNA)
RNA: B9 RNA with U25G, C26U, U27G, A29C, A30U
DNA 1: CAATCTGAATTCCGGTCTCCC
DNA 2: TGGTGGCTACGACGGGATT
B12: CUGGUAG (DNA:RNA)
RNA: B1 RNA with A25C, A26U, A27G, U28G, U30A
DNA 1: CAATCTGAATTCCGGTCTCCC
DNA 2: TGGTGGCTACGACGGGATT
B13: AAAUUCG (DNA:RNA)
RNA: B1 RNA with U30C
DNA 1: CAATCTGAATTCCGGTCTCCC
DNA 2: TGGTGGCTACGACGGGATT
B14: AUCUGCU (DNA:RNA)
RNA: B1 RNA with A26U, A27C, U29G, U30C, G31U
DNA 1: CAATCTGAATTCCGGTCTCCC
DNA 2: TGGTGGCTACGACGGGATT
B15: CGGAGUA (DNA:RNA)
RNA: B1 RNA with A25C, A26G, A27G, U28A, U29G, G31A
DNA 1: CAATCTGAATTCCGGTCTCCC
DNA 2: TGGTGGCTACGACGGGATT
B16: GCCUAGA (DNA:RNA)
RNA: B9 RNA with U25G, U27C, G28U, A30G, C31A
DNA 1: CAATCTGAATTCCGGTCTCCC
DNA 2: TGGTGGCTACGACGGGATT
B17: UAUUCUA (DNA:RNA)
RNA: B1 RNA with A25U, A27U, U29C, G31A
DNA 1: CAATCTGAATTCCGGTCTCCC
DNA 2: TGGTGGCTACGACGGGATT
B18: AGCUAUU (DNA:RNA)
RNA: B1 RNA with A26G, A27C, U29A, G31U
DNA 1: CAATCTGAATTCCGGTCTCCC
DNA 2: TGGTGGCTACGACGGGATT
B19: UUCAUAG (DNA:RNA)
RNA: B1 RNA with A25U, A26U, A27C, U28A, U30A
DNA 1: CAATCTGAATTCCGGTCTCCC
DNA 2: TGGTGGCTACGACGGGATT
B20: UGUUGUU (DNA:RNA)
RNA: B1 RNA with A25U, A26G, A27U, U29G, G31U
DNA 1: CAATCTGAATTCCGGTCTCCC
DNA 2: TGGTGGCTACGACGGGATT
B21: GACUCUC (DNA:RNA)
RNA: B1 RNA with A25G, A27C, U29C, G31C
DNA 1: CAATCTGAATTCCGGTCTCCC
DNA 2: TGGTGGCTACGACGGGATT
B22: AAAGAGU (DNA:RNA)
RNA: B1 RNA with U28G, U29A, U30G, G31U
DNA 1: CAATCTGAATTCCGGTCTCCC
DNA 2: TGGTGGCTACGACGGGATT
B23: GAAGAUC (DNA:RNA)
RNA: B1 RNA with A25G, U28G, U29A, G31C
DNA 1: CAATCTGAATTCCGGTCTCCC
DNA 2: TGGTGGCTACGACGGGATT
B24: GCCGAAG (DNA:RNA)
RNA: B9 RNA with U25G, U27C, C31G
DNA 1: CAATCTGAATTCCGGTCTCCC
DNA 2: TGGTGGCTACGACGGGATT
B25: CGGUUAU (DNA:RNA)
RNA: B1 RNA with A25C, A26G, A27G, U30A, G31U
DNA 1: CAATCTGAATTCCGGTCTCCC
DNA 2: TGGTGGCTACGACGGGATT
B26: AAGUGCA (DNA:RNA)
RNA: B1 RNA with A27G, U29G, U30C, G31A
DNA 1: CAATCTGAATTCCGGTCTCCC
DNA 2: TGGTGGCTACGACGGGATT
B27: AGGAAGC (DNA:RNA)
RNA: B9 RNA with U25A, C26G, U27G, G28A, A30G
DNA 1: CAATCTGAATTCCGGTCTCCC
DNA 2: TGGTGGCTACGACGGGATT
B28: AAGCGUU (DNA:RNA)
RNA: B1 RNA with A27G, U28C, U29G, G31U
DNA 1: CAATCTGAATTCCGGTCTCCC
DNA 2: TGGTGGCTACGACGGGATT
B29: GUAUAGU (DNA:RNA)
RNA: B1 RNA with A25G, A26U, U29A, U30G, G31U
DNA 1: CAATCTGAATTCCGGTCTCCC
DNA 2: TGGTGGCTACGACGGGATT
B30: CAGGCUG (DNA:RNA)
RNA: B1 RNA with A25C, A27G, U28G, U29C
DNA 1: CAATCTGAATTCCGGTCTCCC
DNA 2: TGGTGGCTACGACGGGATT
B31: AAAGGGC (DNA:RNA)
RNA: B1 RNA with U28G, U29G, U30G, G31C
DNA 1: CAATCTGAATTCCGGTCTCCC
DNA 2: TGGTGGCTACGACGGGATT

Target: T1, RBFOX1 RRM RbFoxmut (Fox-RRM*)
Assay: EMSA; HiTS-Eq, 1 nM pool, 10 min; buffer printed only for the single-RNA assays: 10 mM Tris pH 7.5, 150 mM NaCl, 3.4 mM EDTA, 0.001% NP-40, 30 C
Settings: tags: His6 N-terminal (pET28a); label: 5' 32P
Outline: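 Relative association constants, normalised to the cognate motif, were derived by comparing read counts of each RNA species with those of the control reaction. The RNA sequenced was the free fraction, separated by 8% native PAGE after a 10 min equilibration in 50 µL of 1 nM 5′-radiolabelled RNA (7 randomized nucleotides) with increasing concentrations of purified wild-type or mutant RbFox RRM.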

| Binder | binding signal |
| --- | --- |
| B1 | 0.0621 KA relative to UGCAUGU |
| B2 | 0.0612 KA relative to UGCAUGU |
| B3 | 0.067 KA relative to UGCAUGU |
| B4 | 0.089 KA relative to UGCAUGU |
| B5 | 0.0802 KA relative to UGCAUGU |
| B6 | 0.116 KA relative to UGCAUGU |
| B7 | 0.0983 KA relative to UGCAUGU |
| B8 | 0.133 KA relative to UGCAUGU |
| B9 | 0.0583 KA relative to UGCAUGU |
| B10 | 0.0815 KA relative to UGCAUGU |
| B11 | 0.125 KA relative to UGCAUGU |
| B12 | 0.119 KA relative to UGCAUGU |
| B13 | 0.0824 KA relative to UGCAUGU |
| B14 | 0.0892 KA relative to UGCAUGU |
| B15 | 0.146 KA relative to UGCAUGU |
| B16 | 0.11 KA relative to UGCAUGU |

| Binder | binding signal |
| --- | --- |
| B17 | 0.0906 KA relative to UGCAUGU |
| B18 | 0.0983 KA relative to UGCAUGU |
| B19 | 0.111 KA relative to UGCAUGU |
| B20 | 0.15 KA relative to UGCAUGU |
| B21 | 0.0318 KA relative to UGCAUGU |
| B22 | 0.116 KA relative to UGCAUGU |
| B23 | 0.0684 KA relative to UGCAUGU |
| B24 | 0.103 KA relative to UGCAUGU |
| B25 | 0.0817 KA relative to UGCAUGU |
| B26 | 0.157 KA relative to UGCAUGU |
| B27 | 0.0872 KA relative to UGCAUGU |
| B28 | 0.0979 KA relative to UGCAUGU |
| B29 | 0.15 KA relative to UGCAUGU |
| B30 | 0.157 KA relative to UGCAUGU |
| B31 | 0.0621 KA relative to UGCAUGU |
